# From PubChem BioAssay AID1030 (National Center for Advancing Translational Sciences (NCATS), 2008)
# Out of some 220,000 compounds screened, about 16,000 (7.3%) were called active. The inconclusive results got no clear call from the source; some entries with a clear call stand among them for comparison. Calls follow the shape of the dose curve; as a rule, active = well fitted inhibition curve with a large enough effect (not every such curve was filed as active); inconclusive = small, poorly fitted or top-dose-only effect, or another doubt; inactive = no such curve, though single readings can be large or run the other way. No potency is given beside an inconclusive call; the fits are too rough.
# Target: Aldehyde dehydrogenase 1A1 (Homo sapiens) (UniProt P00352)
# UniProt P00352, sequence (P00352 whole entry, looked up): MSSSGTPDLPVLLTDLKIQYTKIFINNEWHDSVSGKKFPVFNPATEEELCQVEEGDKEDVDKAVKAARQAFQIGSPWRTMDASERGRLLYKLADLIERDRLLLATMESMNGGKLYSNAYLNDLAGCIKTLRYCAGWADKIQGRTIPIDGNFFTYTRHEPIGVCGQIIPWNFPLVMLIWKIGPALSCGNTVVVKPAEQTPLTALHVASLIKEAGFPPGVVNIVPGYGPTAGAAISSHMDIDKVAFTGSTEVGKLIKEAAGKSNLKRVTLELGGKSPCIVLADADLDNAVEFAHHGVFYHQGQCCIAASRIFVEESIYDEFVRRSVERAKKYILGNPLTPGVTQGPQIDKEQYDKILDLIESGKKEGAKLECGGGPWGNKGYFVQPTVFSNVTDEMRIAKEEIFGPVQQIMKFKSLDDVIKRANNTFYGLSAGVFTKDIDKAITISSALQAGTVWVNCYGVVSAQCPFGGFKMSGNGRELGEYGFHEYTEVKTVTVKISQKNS
# Test: qHTS Assay for Inhibitors of Aldehyde Dehydrogenase 1 (ALDH1A1)
# Conditions: Purified ALDH1A1, NADH fluorescence, propionaldehyde substrate; series mostly up to 75.3 µM
# Potency is read from the fitted curve at half-maximal effect; tags tell the direction and shape of the fitted curve.
row,Compound,Potency
1,COc1ccc(OC)c2c(C)cc(NCCN3CCOCC3)nc12,"inconclusive [inhibitor, partial curve]"
2,O=C(Nc1cccc(Oc2ccc3c(c2)C(=O)NC3=O)c1)c1ccco1,inactive
3,COc1ccc2c(c1)O[C@@H](c1ccc3c(c1)OCO3)[C@H](OC(=O)NS(=O)(=O)c1ccc(C)cc1)C2=O,inactive
4,COC(=O)CCC(=O)COc1ccccc1C#N,"inconclusive [inhibitor, single point]"
5,O=C(c1cccc(F)c1)N1CCC[C@@]2(CCN(c3ccccn3)C2)C1,"inconclusive [inhibitor, single point]"
6,CCC(C)[C@H](NC(=O)NCc1ccccc1Cl)C(=O)OC (some centres undefined),"inconclusive [inhibitor, single point]"
7,CC1=NN(c2ccc(C)cc2C)C(=O)C1C(c1cccc(O)c1)C1C(=O)N(c2ccc(C)cc2C)N=C1C (centres undefined),"inconclusive [inhibitor, partial curve]"
8,COc1ccc(-c2cc(C(=O)OCC(=O)NC(C)(C)C)c3ccccc3n2)cc1,"inconclusive [inhibitor, partial curve]"
9,Cc1nn(-c2ccccc2)c(C)c1/C=N/NC(=O)c1cc(C23CC4CC(CC(C4)C2)C3)[nH]n1,"inconclusive [inhibitor, partial curve, poor fit]"
10,COc1cccc(C2C3=C(CC(C)(C)CC3=O)Nc3cc4c(cc32)OCO4)c1 (centres undefined),"inconclusive [inhibitor, partial curve]"
11,COc1cccc(CNC(=O)C23CN(Cc4ccccc4)CC2C(c2ccc([N+](=O)[O-])cc2)=NO3)c1 (centres undefined),"inconclusive [inhibitor, single point]"
12,N#CC1=C(N)SC(N)=C(C#N)C1Cc1ccccc1,active: 8.91 µM
13,CCOC(=O)c1ccc(NC(=O)c2cn(-c3ccccc3)nc2-c2ccncc2)cc1,inactive
14,COc1ccc(C(=O)NC(NC(=O)c2ccc(OC)c(OC)c2)c2ccccc2F)cc1OC,"inconclusive [inhibitor, single point]"
15,CC12CC3CC(C)(C1)CC(Nc1nc(N4CCOCC4)nc4ccccc14)(C3)C2,"inconclusive [inhibitor, partial curve]"
16,O=C1NCCN(Cc2c(F)cccc2Cl)C1CC(=O)N1CCCO1 (centres undefined),"inconclusive [inhibitor, single point]"
17,Cc1oc(C(C)(C)C)c(CN2CCCC2)c1C(=O)O,"inconclusive [inhibitor, single point]"
18,O=C(NCCc1ccccc1)c1c(F)c(F)c(F)c(F)c1F,inactive
19,O=C(Nc1nc(-c2cccs2)cs1)c1ccc(S(=O)(=O)N2CCCCC2)cc1,"inconclusive [inhibitor, partial curve]"
20,CSc1ccccc1NC(=O)CSc1nnnn1-c1ccccc1SC,active: 11.2 µM
21,COc1ccccc1CCN1C(=S)NC(C)(C)CC1(C)O (centres undefined),"inconclusive [inhibitor, single point]"
22,N#C/C(=C\c1ccc([N+](=O)[O-])cc1)c1ccccn1,inactive

row,Compound,Potency
1,CCSc1nc(-c2ccccc2)c(C#N)c(=O)[nH]1,"inconclusive [inhibitor, partial curve]"
2,CSc1ccc(Cl)c(C(=O)NCc2ccco2)c1,"inconclusive [inhibitor, single point]"
3,Cn1c(-c2ccc3c(c2)OCO3)cnc1NCc1ccc(Cl)cc1,"inconclusive [inhibitor, partial curve]"
4,O=C(O)CCCNC(=O)/C(=C\C=C\c1ccccc1)NC(=O)c1ccccc1Cl,"inconclusive [inhibitor, partial curve, poor fit]"
5,Cc1cc(/C=C2/NC(=O)N(Cc3ccccc3F)C2=O)c(C)n1-c1ccccn1,active: 8.91 µM
6,Cc1nc(-c2cccc(S(=O)(=O)N3CCCC(C)C3)c2)cs1 (centres undefined),"inconclusive [inhibitor, single point]"
7,CCCc1cc2c(cc1NS(=O)(=O)c1ccc(CCNC(C)=O)cc1)OCO2,"inconclusive [inhibitor, partial curve]"
8,Cc1ccc(S(=O)(=O)/N=C(/Nc2ccc3[nH]c(=O)[nH]c3c2)c2ccc(F)cc2)cc1,active: 8.91 µM
9,CCCOc1ccc(C(=O)NC(=S)Nc2nc3ccccc3s2)cc1,inactive
10,O=C(CNC(=O)C12CC3CC(CC(C3)C1)C2)N1CCN(S(=O)(=O)/C=C/c2ccccc2)CC1,inactive
11,Cc1cc(C)c(OCCNC(=O)c2ccccc2Sc2ccccc2C#N)c(C)c1,inactive
12,Cc1cc(C)c2[nH]c(=O)c(CN(Cc3ccco3)C(=S)NCC3CCCO3)cc2c1 (centres undefined),"inconclusive [inhibitor, partial curve]"
13,COc1ccc(-c2nn(CC(=O)N(C)C)c(=O)c3ccccc23)cc1,"inconclusive [inhibitor, partial curve]"
14,COc1ccc2c(c1-c1c3c(cc(Br)c1OC)CCCC3)CCCC2,inactive
15,COc1ccccc1C(=O)O/N=C1/CCCc2c1ccc(OC)c2[N+](=O)[O-],inactive
16,S=c1[nH]nc(SCc2ccccc2Cl)c2[nH]cnc12,active: 0.0316 µM
17,CC1CC(=O)N(c2ccc(NCCc3ccc(O)cc3)c([N+](=O)[O-])c2)C1=O (centres undefined),"inconclusive [inhibitor, single point]"
18,Clc1ccccc1Cn1nnc2c(N3CCCC3)ncnc21,"inconclusive [inhibitor, partial curve]"
19,CCC(=O)NCc1cc(-c2nn(C)c(=O)c3ccccc23)ccc1OC,inactive
20,COc1cc2c(cc1OC)CN(Cc1cc(=O)oc3cc(C)c(Cl)cc13)CC2,"inconclusive [inhibitor, partial curve]"
21,COc1ccc(N2CCN(Cc3nc4c(c(=O)n(C)c(=O)n4C)n3CCc3ccccc3)CC2)cc1,"inconclusive [inhibitor, partial curve]"
22,CCC(=O)Nc1nonc1-c1nc2ccccc2n1CC(C)C,"inconclusive [inhibitor, partial curve]"
